Test results from PubChem BioAssay AID445 (National Center for Advancing Translational Sciences (NCATS), 2006).
The campaign covered roughly 110,000 compounds. About 40 (0.04%) were called active. This list was built around the results that the source calls inconclusive (neither active nor inactive); the mix of calls is not that of the screen. The call rests on the fitted dose curve; in most records, active means well fitted curve in the direction sought with a large enough effect in the signal ratio (not every such curve was filed as active); inconclusive means small, poorly fitted or top-dose-only effect, or a change in a side signal; inactive means flat fitted curve, though single readings scatter; the % refers to the signal ratio. Where the call is inconclusive, the potency comes from a doubtful curve fit.

Experiment: IkB Signaling;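 on IkBa stabilization activation: 0% = basal untreated cells and 100% = reference inhibitor full response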
Details: ABC-DLBCL IkBa-CBG/CBR dual luciferase ratio (green luciferase fused to IkBa over red control in OCI-Ly3 lymphoma cells), 4 h; IkBa stabilization activation: at 57.1 µM (top of the series), scaled: untreated 0%, proteasome inhibitor 100% unless noted
Outline: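 Curves were fitted separately to fusion (green), unfused (red) and ratio luminescence, then classed by r2, magnitude and activity. Cells: OCI-Ly3, 4 h compound plus doxycycline at 37C; 10 uM MG-132 defined full response.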
Potency means the concentration at half of the fitted maximal effect.

Structure (SMILES) | IkBa stabilization activation | Potency
COc1ccc(Cl)cc1N(C)C(=O)C(=O)Nc1ccc2nc3n(c(=O)c2c1)CCCCC3 | inconclusive: 0.592% [signal inhibitor] | 
O=C1CN(C(=O)OCc2ccccc2)c2ccccc2N1 |  | inconclusive: 25.1 µM [signal inhibitor, partial curve]
COc1ccc(CCCO[C@@H](Cn2ccnc2)c2ccc(OC)cc2)cc1 | inconclusive: 3.56% [signal inhibitor] | 
Cc1ccc(C)c(N2CCN(C(=O)C(C)n3c(C)c4cnn(-c5ccccc5)c(=O)c4c3C)CC2)c1 (configuration not stated) | inconclusive: 3.39% [signal inhibitor] | 
O=C(Nc1cccc(NC(=O)c2ccco2)c1)c1ccc2c(c1)OCO2 | inactive: 1.33% | 
Cc1ccc(CNC(=O)c2c(-c3cccc(Br)c3)noc2C)o1 | inconclusive: 1.01% [signal inhibitor] | 
COC(=O)c1ccc(OCC2c3cc(OC)c(OC)cc3CCN2C(=O)c2ccccc2F)cc1 (configuration not stated) | inconclusive: 0.814% [signal inhibitor] | 
CC(Nc1ccc(-c2nc(-c3ccccn3)no2)cc1[N+](=O)[O-])c1ccccc1 (configuration not stated) | inconclusive: -1.17% [signal inhibitor] | 
CCCCCn1c(=N)n(CC(O)COc2cccc(C)c2)c2ccccc21 (configuration not stated) | inconclusive: -3.27% [signal inhibitor] | 
O=C(CSCc1cnn(-c2ccccc2)c1-n1cccc1)Nc1ccc(F)cc1F | inactive: 5.89% | 
CCCc1cc(C(=O)Cc2ccc(C(=O)OCC)o2)c(O)cc1O | inconclusive: 4.44% [signal inhibitor] | 
COc1ccc(S(=O)(=O)N2CCN(CC(=O)Nc3ccc(C)c(F)c3)CC2)cc1 | inconclusive: 1.04% [signal inhibitor] | 
COc1ccc(S(=O)(=O)c2cnc(SCC(=O)Nc3cc(F)ccc3C)[nH]c2=O)cc1Cl | inconclusive: 3.63% [signal inhibitor] | 
CCC1CCCCN1C(=O)c1sc(-n2nc(C)c(Cc3ccccc3)c2C)nc1C (configuration not stated) | inconclusive: 1.41% [signal inhibitor] | 
CC(=O)c1cccc(NC(=O)c2cc3c(s2)-c2c(C)cccc2OC3)c1 | inconclusive: 1.51% [signal inhibitor] | 
C=CCSc1nc2c(c(=O)[nH]c(=O)n2C)n1C/C=C(/C)Cl | inactive: 0.457% | 
CCOC(=O)c1ccc(OC(=O)c2cn(-c3cccc(OC)c3)c(=O)c3ccccc23)cc1 | inconclusive: 2.34% [signal inhibitor] | 
Cc1ccc(Cn2c(=S)[nH]c3ccc(N4CCOCC4)cc3c2=O)o1 |  | inconclusive: 5.01 µM [rising, single point]
Cc1cccc(Cc2c(C)nc3nc(SCC(=O)NCc4ccco4)nn3c2C)c1 |  | inconclusive: 31.6 µM [signal inhibitor, partial curve]
CCc1ccc2c(c1)NC(c1ccc(OC)cc1)=NC(c1ccncc1)=N2 | inconclusive: 0.937% [signal inhibitor] | 
COc1cccc(Cn2c(=O)c(-c3cccc(Cl)c3)nc3cncnc32)c1 | inactive: 0.596% [at 11.4 µM, scaled: untreated 0%, proteasome inhibitor 100%] | 

Structure (SMILES) | IkBa stabilization activation | Potency
COc1cc(/C=C/c2nc(C#N)c(N3CCC(C)CC3)o2)cc(OC)c1OC | inconclusive: 1.56% [signal inhibitor] | 
CCC(=O)c1ccc(OCC(=O)O)cc1 | inactive: 0.161% | 
COC(=O)CN1C(=O)CSc2ccc(S(=O)(=O)Nc3cccc(Cl)c3C)cc21 | inconclusive: -0.644% [signal inhibitor] | 
Nc1c(-c2nc(-c3ccc(F)cc3)cs2)c2ccccn2c1C(=O)c1ccc2c(c1)OCO2 | inconclusive: 6.29% [signal inhibitor] | 
Cc1cc(=O)n(CC(=O)N2CCN(c3ccc(F)cc3)CC2)c2c1c(C)nn2C | inconclusive: 5.52% [signal inhibitor] | 
FC(F)C(F)(F)C(F)(F)C(F)(F)c1cc(-c2ccccc2)n[nH]1 | inconclusive: -3.92% [signal inhibitor] | 
CCc1ccc(CC)c(S(=O)(=O)Nc2ccc(C(=O)O)c(O)c2)c1 | inactive: 3.67% | 
COc1ccc(NCc2cc3ccc(OC)cc3n(CC(=O)Nc3cc(Cl)ccc3C)c2=O)cc1 | inconclusive: 0.642% [signal inhibitor] | 
COc1ccc2c(c1)CCc1c(C(=O)N3CCc4ccccc4C3)noc1-2 | inconclusive: 3.73% [signal inhibitor] | 
CCc1cccc(NC(=O)CN(C)S(=O)(=O)c2cccc3cccnc23)c1 | inconclusive: 5.1% [signal inhibitor] | 
CC1CC(C)CN(C(=O)CSCC(=O)Nc2nc(-c3cccs3)cs2)C1 (configuration not stated) | inconclusive: 13.8% [signal inhibitor] | 
O=C1c2ccccc2-c2onc3c(NCCO)cc(NC4CCCCC4)c1c23 | inconclusive: 6.2% [signal inhibitor] | 
COc1ccc(C(CNC(=O)COc2cc(C)cc(C)c2)N2CCOCC2)cc1 (configuration not stated) | inconclusive: 3.59% [signal inhibitor] | 
Cn1nccc1C(=O)NCc1ccc2c(c1)CCN2C(=O)c1ccc(Cl)cc1 | inconclusive: 0.155% [signal inhibitor] | 
COc1ccc(N2CCN(c3csc4ccccc4c3=O)CC2)cc1 | inconclusive: 2.9% [signal inhibitor] | 
CCCCOc1ccc(Cn2c(=O)sc3ccccc32)cc1 | inactive: 2.3% | 
COCCCn1c(=N)c(C(=O)NCC2CCCO2)cc2c(=O)n3ccccc3nc21 (configuration not stated) | inactive: 0.0708% | 
CCc1ccccc1NC(=O)C1CCCN(c2cnccn2)C1 (configuration not stated) | inconclusive: 0.647% [signal inhibitor] | 
Cc1ccc(NC(=O)CSc2nc(=O)cc(N)n2CCc2ccccc2)cc1 | inconclusive: 1.64% [signal inhibitor] | 
COc1ccc(CNc2cc(-c3ccccc3C)ncn2)c(OC)c1 | inactive: 3.28% [at 11.4 µM, scaled: untreated 0%, proteasome inhibitor 100%] | 
COc1ccc(NC(=O)C(NC(=O)/C=C\c2ccc3c(c2)OCO3)c2ccccc2)cc1 (configuration not stated) | inconclusive: 1.39% [signal inhibitor] | 
